# Data: ChEMBL document CHEMBL1156829
# In all, about 5,400 compounds were measured (“IFI”: median about 2, highest 2% from about 22 on). The list shows a part of the results.
# Test: NOVARTIS: Inhibition Frequency Index (IFI) - the number of HTS assays where a compound showed > 50% inhibition/induction, expressed as a percentage of the number of assays in which the compound was tested.
# Assay type: functional
row,SMILES,IFI
1,COC(=O)c1c(N)n(-c2ccccc2OC)c2nc3ccccc3nc12,0%
2,Cc1cc(Nc2cccc(Cl)c2)nc(NCc2ccccc2)n1,4.54%
3,CC(=NNC(=O)c1ccc([N+](=O)[O-])cc1)c1cccc([N+](=O)[O-])c1,0%
4,Cc1ccc(CN2CCc3nc(N4CCCCC4)sc3C2)s1,6.94%
5,COCCN1C(=O)C(O)=C(C(=O)c2ccccc2)C1c1ccccc1[N+](=O)[O-] (stereo not given),0%
6,CN(CCCNc1ccnc2cc(Cl)ccc12)C(=O)C(C)(C)CCl,4.63%
7,CN1CCc2c(sc3nc(SCc4ccc(Cl)cc4)n(-c4cccc(Cl)c4)c(=O)c23)C1,11.5%
8,Cc1ccc(NC(=O)C2C3C=CC4(O3)C2C(=O)N(CCCN2CCOCC2)C4C(=O)NC2CCCC(C)C2C)cc1Cl (stereo not given),0%
9,Cc1ccc(S(=O)(=O)N=C2C=C(Sc3nc4ccccc4[nH]3)C(=O)c3ccccc32)cc1,12.7%
10,COc1ccc(C(=O)N2C(C(=O)Nc3ccccc3F)CSC2c2ccc(C(C)(C)C)cc2)cc1 (stereo not given),2.15%
11,CCOC(=O)C1=C(C)N=c2sc(=Cc3cc(Br)ccc3O)c(=O)n2C1c1ccc(OC)c(OC)c1 (stereo not given),2.47%
12,COc1cc(-c2nc(-c3cccc(Cl)c3)c(-c3ccccc3)[nH]2)cc(OC)c1O,3.37%
13,COc1cccc(NC(=O)C2C3C=CC4(O3)C2C(=O)N(CC2COc3ccccc3O2)C4C(=O)NC2CCCCC2)c1 (stereo not given),0%
14,CCCCCCc1ccc(C(=O)NCCCCNc2ccnc3cc(Cl)ccc23)cc1,2.13%
15,O=C(ON=C(c1ccncc1)c1ccc(Cl)cc1)c1ccccc1,2.54%
16,CC1(C)Oc2ccc3ccc(=O)oc3c2CC1=NNC(N)=S,3.85%
17,O=c1c2c3c(sc2ncn1CCCc1ccccc1)CC(N1CCC(N2CCCCC2)CC1)CC3 (stereo not given),2.24%
18,CC(=O)N1c2ccccc2CC1C(=O)NCc1cccc(Cl)c1 (stereo not given),0%
19,Cc1cc(NCCc2ccccc2)nc2cc(O)ccc12,2.27%
20,O=C(c1ccc([N+](=O)[O-])cc1)c1ccc(Cl)c(Cl)c1,0%
21,CCCCc1ccc(Nc2ncnc3sc4c(c23)CCCC4)cc1,0%
22,CC(=O)Nc1ccc(Oc2ccc(C(c3ccccc3)(c3ccccc3)c3ccc(Oc4ccc(NC(C)=O)cc4)cc3)cc2)cc1,1.56%
23,COc1ccc(C(=O)C[n+]2cc(-c3ccc(OC)cc3)n3c2CCC3)cc1,4.88%
24,Cc1nnc(SCC(=O)NCc2ccco2)n1-c1ccc(F)cc1,0%
25,O=C(Nc1ccc(C2=NCCN2)c(Cl)c1)c1ccc(C(=O)Nc2ccc(C3=NCCN3)c(Cl)c2)cc1,0%

row,SMILES,IFI
1,CCCCCCCn1c2c(c(=N)c3ccccc31)CCC2,13.6%
2,O=c1cc(NC2CCN(CCCc3ccccc3)CC2)c2cc(Cl)ccc2o1,0%
3,CC(C)CNC(=O)c1cnc(NCCCn2ccnc2)nc1NCC1CCCCC1,0.962%
4,CSc1ccc(Cl)c(Cl)c1,6.17%
5,CCCCSCC(O)CN1CCCCC1 (stereo not given),0%
6,Cc1cc(NC(=O)C2c3ccccc3C(=O)N(CC(C)C)C2c2cccs2)no1 (stereo not given),0%
7,CCN(CC)C(=O)CSc1nnc(-c2ccccn2)n1-c1ccc(OC)cc1,3.64%
8,c1ccc(-c2ccc(-c3ccccn3)nc2)nc1,15.9%
9,Cc1ccccc1/C=C1/SC(=Nc2ccccc2)NC1=O,3.45%
10,O=C(Nc1cccc(Cl)c1)Nc1cc(C(F)(F)F)cc(C(F)(F)F)c1,12.5%
11,Cc1nc2ccc(NC(=O)C3CC3)cc2c(=O)n1Cc1ccc(Cl)cc1,3.39%
12,Cc1cc(C(=O)N2CCOc3c(cc(-c4csc5ccccc45)cc3OCCc3ccccn3)C2)n(C)n1,1.92%
13,CCN1/C(=C/c2cccc[n+]2C)Sc2cc(NC(C)=O)ccc21,0%
14,CCN(CC)Cc1cc2ccc(C)cc2n(CC(=O)OC)c1=O,1%
15,Cc1c(Cl)cccc1N1C(=O)C2C3c4ccccc4C(c4ccccc43)C2C1=O (stereo not given),0%
16,CC(CCCO)Nc1ccnc2cc(Cl)ccc12 (stereo not given),4.88%
17,Oc1ccc(-c2ccccc2)cc1CN1CCCCC1,0%
18,CCOC(=O)c1c(CNC)n(C)c2cc(Br)c(O)cc12,0%
19,CCOC(=O)c1c(NC(=O)CCC(=O)OC)sc2c1CC(C)(C)SC2,1.22%
20,CCOc1ccc(NC(=O)c2ccc(F)c(S(=O)(=O)NC3CCCC(C)C3C)c2)cc1 (stereo not given),0%
21,Cc1cc(C(=O)Nc2cnn(Cc3ccc(Cl)cc3Cl)c2)no1,0%
22,COc1cc(CNc2ccc(N3CCCCC3)cc2)ccc1OCc1ccccc1F,2.78%
23,O=C(NCCc1ccccc1)C(=O)NN=Cc1ccccc1,0%
24,COC(=O)NCCNC(=O)COC(c1cccs1)c1cccnc1Cl (stereo not given),1.94%
25,Cc1cccn2c(=O)c3cc(C(=O)NCc4ccco4)c(=N)n(CCc4ccccc4)c3nc12,7.81%

row,SMILES,IFI
1,CCN(CC)CCN(Cc1cc2cc(OC)ccc2[nH]c1=O)C(=S)Nc1cccc(Cl)c1,7.14%
2,Clc1cc(C=NNC2=NCCCN2)cc(Cl)n1,0%
3,Cc1cccn2c(=O)c3cc(C(=O)NC4CCCC4)c(=N)n(CCc4ccccc4)c3nc12,6.76%
4,COCCN(CC(O)CNC(=O)c1ccc2ccccc2n1)S(=O)(=O)c1c(C)noc1C (stereo not given),1.96%
5,COc1cccc(CN2CCN(C(=O)c3c(C)noc3C)[C@@H](C)C2)c1,0%
6,COc1ccc2nc(C)cc(NN=Cc3cccs3)c2c1,15.4%
7,CCN(CC)c1ccc(NCc2ccc3c(c2)OCO3)cc1,2.98%
8,CC1CC(C)CN(S(=O)(=O)c2ccc(C(=O)Nc3ccc(-c4nc5ccccc5o4)cc3)cc2)C1 (stereo not given),3.23%
9,CCN(CCN1CCN(S(=O)(=O)c2cc(Cl)ccc2Cl)CC1)CC1=CCC2CC1C2(C)C (stereo not given),1.85%
10,CC(=NNC(=O)c1ccc(C)cc1)c1ccccn1,0%
11,CCCn1c(SCCNC(=O)/C=C/c2ccccc2)nc(-c2ccccc2)c1-c1ccccc1,0.926%
12,CN1CCN(c2cc(-c3ccncc3)nc(-c3cccnc3)n2)CC1,0%
13,CCN1C(=Cc2sc3cc(NC(C)=O)ccc3[n+]2CC)C=Cc2cc(C)ccc21,7.69%
14,COC(CNc1cc(-c2ccccn2)nc(-c2ccccn2)n1)OC,7.69%
15,CC(C)c1nc(N2CCN(C(=S)NCc3ccccc3)CC2)c(C#N)c2c1COC(C)(C)C2,0%
16,CCCCCCCCC(=O)Oc1ccccc1-c1nc2cc(C)ccn2c1NC(C)(C)CC(C)(C)C,4.63%
17,COc1ccc(C2=NN(C(=O)CCC(=O)O)C(c3ccccc3F)C2)cc1 (stereo not given),0%
18,CC(C)CN1C(=O)c2ccccc2C(C(=O)Nc2ccc(CN3CCC(C)CC3)cc2)C1c1cccs1 (stereo not given),3.03%
19,CCC(c1nc2ccccc2c(=O)n1-c1ccccc1OC)N(CCc1ccccc1)C(=O)c1cccc(OC)c1 (stereo not given),3.67%
20,O=C(NCCCCCCNC(=O)Nc1nc(-c2ccc(F)cc2)cs1)Nc1nc(-c2ccc(F)cc2)cs1,3.17%
21,CCOC(=O)C1=C(C)NC2=C(C(=O)CC(c3ccc(OC)cc3)C2)C1c1cccs1 (stereo not given),0%
22,CN(C)CCNc1cc(-c2ccccc2)nc2ccccc12,1.6%
23,O=c1c2c([nH]c3ccccc13)CCCCCC2,0%
24,CCOc1ccc(Nc2nc(N3CCCCC3)nc(N3CCCCC3)n2)cc1,0%
25,CN1CCN(c2nc(NN=Cc3ccc(O)cc3)nc(Nc3ccc([N+](=O)[O-])cc3)n2)CC1,7.69%

row,SMILES,IFI
1,COc1cc(NC(C)CCCN(Cc2ccc(OC)c(OC)c2)C(=O)CCC2CCCC2)c2ncccc2c1 (stereo not given),3.01%
2,CCCOC(=O)C1=C(C)NC2=C(C(=O)CC(c3ccc(Cl)cc3)C2)C1c1ccc(Br)cc1 (stereo not given),3.57%
3,CCN(CC)c1ccc(N=Cc2ccccc2[N+](=O)[O-])cc1,10.3%
4,Nc1noc2cccc(OC3CCNCC3)c12,4.17%
5,CCCCCCc1ccc(/C(C=[N+](C)C)=C\N(C)C)cc1,21.4%
6,CC1(C)N=C(N)N=C(N)N1c1ccc(Br)cc1,4.92%
7,COc1cccc(CCN2Cc3ccc(C(=O)NC(C)C)cc3N=C2c2ccc(C)cc2)c1,3.66%
8,COC(=O)C1=C(C)NC2=C(C(=O)c3ccccc32)C1c1ccc(OCC#N)c(OC)c1 (stereo not given),0%
9,CCCN1CCc2c(sc3nc(SC)n(-c4ccccc4)c(=O)c23)C1,11.5%
10,COc1cccc(N2C(N)=NC(N)=NC2(C)C)c1,0%
11,C(=NNc1nc2ccccc2[nH]1)c1cccc(Oc2ccccc2)c1,0%
12,O=C(c1cccs1)N1CCN(c2ccc([N+](=O)[O-])c(NC3CC3)c2)CC1,2.5%
13,COc1ccc(C(=O)ON=C(N)Cc2ccc(Cl)cc2Cl)cc1[N+](=O)[O-],0%
14,CC(=NO)c1ccc(NC2=C(N3CCCCC3)C(=O)c3ccccc3C2=O)cc1,0%
15,CCCC(C)C(C(=O)Nc1c(C)cccc1C)N1C(=O)c2cc(NC(C)=O)ccc2NC(=O)[C@@H]1CCC(=O)O (stereo not given in full),3.66%
16,CS(=O)(=O)Nc1cccc(-c2cnc(N)c(-c3ccc(C(=O)N4CCOCC4)cc3)n2)c1,0%
17,CCN(CC)c1scc(-c2ccc(Br)cc2)[s+]1,7.69%
18,CCOC(=O)NC(=O)N1CCC(c2nc(-c3cc(C(C)(C)C)c(O)c(C(C)(C)C)c3)cs2)CC1,0%
19,CC(=O)c1ccc(N2C(C)c3nc4ccccc4c(=O)n3C2c2cccc(O)c2)cc1 (stereo not given),7.14%
20,Nc1nonc1-n1nnc(-c2ccccc2)c1C(=O)NN=Cc1ccc(F)c(Br)c1,0%
21,C/C=C/C(C(=O)NCCCC)N1C(=O)c2cc(NC(C)=O)ccc2NC(=O)[C@@H]1C (stereo not given in full),1.24%
22,C[N+](C)(CCCC(=O)c1ccc(C(=O)CCC[N+](C)(C)Cc2ccccc2Cl)cc1)Cc1ccccc1Cl,0%
23,O=C(Oc1ccccc1-c1nc2ccccn2c1NC1CCCCC1)c1ccc([N+](=O)[O-])cc1Cl,2.8%
24,O=C(COc1ccc(Cl)cc1)NCc1ccc(CNc2noc3ccccc23)cc1,5.56%
25,N#Cc1ccc2c(c1)nc1c3ccc4c5c(ccc(c(=O)n21)c53)C(=O)NC4=O,16.4%
